# Data as given in PMC4336329 (PLoS ONE, 2015).
# The whole screen tested about 310,000 compounds, of which about 2,200 (0.71%) showed an effect of 50% or more. Effects have a minus sign here. Some of the results follow.
# Target: human ether-à-go-go-related gene (hERG) potassium channel (human, UniProt Q12809)
# Test: primary screen, population patch clamp on CHO cells stably expressing hERG
# human ether-à-go-go-related gene (hERG) potassium channel, sequence (Q12809 whole entry, looked up): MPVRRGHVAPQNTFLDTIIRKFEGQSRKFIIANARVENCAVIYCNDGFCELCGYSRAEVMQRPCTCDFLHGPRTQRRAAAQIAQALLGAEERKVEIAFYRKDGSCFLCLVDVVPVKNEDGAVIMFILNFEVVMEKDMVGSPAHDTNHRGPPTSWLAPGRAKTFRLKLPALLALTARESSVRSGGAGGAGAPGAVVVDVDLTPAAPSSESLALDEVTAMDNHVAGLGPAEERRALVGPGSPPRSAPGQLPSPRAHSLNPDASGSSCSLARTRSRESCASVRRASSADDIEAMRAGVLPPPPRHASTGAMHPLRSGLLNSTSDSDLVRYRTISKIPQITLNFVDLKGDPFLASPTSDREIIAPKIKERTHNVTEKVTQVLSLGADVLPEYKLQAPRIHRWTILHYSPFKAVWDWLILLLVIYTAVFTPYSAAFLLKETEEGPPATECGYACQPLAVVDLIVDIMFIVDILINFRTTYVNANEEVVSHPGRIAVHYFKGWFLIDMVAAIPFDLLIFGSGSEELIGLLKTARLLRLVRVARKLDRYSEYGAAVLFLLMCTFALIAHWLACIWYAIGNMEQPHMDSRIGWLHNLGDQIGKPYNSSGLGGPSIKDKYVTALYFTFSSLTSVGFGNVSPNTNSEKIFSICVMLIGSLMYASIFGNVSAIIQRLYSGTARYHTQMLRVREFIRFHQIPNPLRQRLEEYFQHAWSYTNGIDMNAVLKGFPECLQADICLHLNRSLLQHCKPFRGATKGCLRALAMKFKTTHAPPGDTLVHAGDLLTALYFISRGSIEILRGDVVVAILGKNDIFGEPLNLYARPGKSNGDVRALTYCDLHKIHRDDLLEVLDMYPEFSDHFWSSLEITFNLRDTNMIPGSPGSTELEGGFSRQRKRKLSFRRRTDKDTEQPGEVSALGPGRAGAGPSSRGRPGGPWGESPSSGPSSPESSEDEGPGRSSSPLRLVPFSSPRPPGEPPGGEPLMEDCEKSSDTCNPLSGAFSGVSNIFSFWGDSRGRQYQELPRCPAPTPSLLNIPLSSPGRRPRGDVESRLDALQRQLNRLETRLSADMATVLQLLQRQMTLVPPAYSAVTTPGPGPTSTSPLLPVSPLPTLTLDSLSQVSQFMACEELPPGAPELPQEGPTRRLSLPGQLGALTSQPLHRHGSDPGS
row,Compound,"hERG current change (%, negative = inhibition) at 1uM [%]"
1,Cc1ccc2[nH]c(-c3ccccc3)c(CN3CCOCC3)c(=O)c2c1,1.51
2,CCOC(=O)C(NCc1ccc2c(c1)OCO2)(NC(=O)c1ccccc1)C(F)(F)F (stereo not shown),3.68
3,CSCC[C@H](NC(=O)OC(C)(C)C)c1nnc(SCc2cccc(F)c2)o1,-0.217
4,O=C(O)c1cc(NS(=O)(=O)c2ccc3ccccc3c2)ccc1O,10.8
5,Nc1cc(Nc2ccccc2)c2nonc2c1[N+](=O)[O-],14.6
6,Cc1cccc(-c2nc(CS(=O)CC(=O)N3CCCCC3)c(C)o2)c1 (stereo not shown),19.5
7,CC1(C)Cc2nc3nc(SCC(=O)Nc4ccccc4)nc(N)c3cc2CO1,12.9
8,S=C(NCCCN1CCOCC1)NCCCN1CCOCC1,14.5
9,CNC(=S)N(CCc1c(C)[nH]c2ccc(C)cc12)Cc1ccc(OC)c(OC)c1,8.62
10,COc1ccc(N2CCN(S(=O)(=O)c3ccc(-n4cnnn4)c(C)c3)CC2)cc1,11.3
11,CC(C)C(NS(=O)(=O)c1cccc2nsnc12)C(=O)NCCC1=CCCCC1 (stereo not shown),1.65
12,Fc1cccc(Cl)c1CN1CCN(c2nc3ccccc3s2)CC1,11.9
13,CC(C)NC(=O)NC(=O)CN1c2cccc3cccc(c23)S1(=O)=O,11.8
14,Cc1ccccc1OCC(=O)Nc1sc2c(c1C#N)CCC2,-0.489
15,CN(C)CCOC1c2ccccc2-c2ccccc21.O=C(O)C(=O)O,12.2
16,O=C1CCN(CCc2ccccc2)CCN1CCSc1ccc(Br)cc1,-25.8
17,CN1CCN(c2ccc(Cl)cc2NC(=O)C2COc3ccccc3O2)CC1 (stereo not shown),-3.62
18,CN(CC(=O)NCCc1ccc(F)cc1)Cc1ccc(Br)cc1,5.77
19,Cc1nc(C(=O)NNC(=O)c2ccccc2)c(C(F)(F)F)o1,12.6
20,O=C(C1CCN(c2ncnc3c2nc2n3CCCCC2)CC1)N1CCN(c2cccc(Cl)c2)CC1,16.3
21,COc1ccc2c(CC(=O)Nc3cccc(S(=O)(=O)N4CCOCC4)c3)coc2c1,-13.3
22,Cn1cc(/C(Cc2ccccc2)=N\O)c2ccccc21,9.46
23,CCOc1ccccc1NC(=S)N1CCN(c2nc(-c3cccc(OC)c3)cs2)CC1,8.82
24,C(=N\Nc1nncc2ccccc12)/c1ccccc1,13.7
25,COc1ccc(C(CNC(=O)C(=O)NC2CCCC2)N2CCN(C)CC2)cc1 (stereo not shown),-14.4
26,COc1ccc(-c2c(C)c3cc(O)ccc3oc2=O)cc1,13.2
27,COc1ccccc1-n1cnnc1SCC(=O)Nc1cccc(S(N)(=O)=O)c1,10.4
28,COc1ccc(Cl)cc1NS(=O)(=O)c1cccc(C(=O)NCC(c2ccco2)N2CCCC2)c1 (stereo not shown),6.73

row,Compound,"hERG current change (%, negative = inhibition) at 1uM [%]"
1,COc1ccccc1C(=O)C1CCCN(C(=O)CSc2ccccn2)C1 (stereo not shown),-3.2
2,COc1ccnc(Oc2ccccc2)c1C(N)=O,13.5
3,Cc1ccc2c(Cl)cc(Cl)c(OCC(=O)Nc3cccc(S(=O)(=O)N(C)C)c3)c2n1,6.17
4,CC(C)(C)c1ccc(C(=O)C2CCCN(C(=O)CCn3cncn3)C2)cc1 (stereo not shown),3.76
5,CCOC(=O)C1=C(C)NC(=O)NC1c1ccc(OC(=O)c2ccco2)cc1 (stereo not shown),5.81
6,CCN(CC)S(=O)(=O)c1cccc(C(=O)N/N=C2\CCCC(=O)C2)c1,7.45
7,Oc1c(CN2CCN(c3ccccc3)CC2)cc(Br)c2cccnc12,0.303
8,Cc1cc(C)cc(N2C(=O)NC(=O)/C(=C\c3cc(C)n(C)c3C)C2=O)c1,10.5
9,Cc1cc(C)c(S(=O)(=O)N2CCN(C)CC2)c(C)c1,11.2
10,O=C(Nc1ccccc1O)c1cccc(S(=O)(=O)Nc2ccccc2O)c1,15.1
11,COC(=O)c1cc(C(=O)c2ccc(C(C)(C)C)cc2)c[nH]1,8.12
12,Cc1n[nH]c(C)c1C(=O)CC1(O)C(=O)N(CCc2ccccc2)c2ccc(Br)cc21 (stereo not shown),15.3
13,O=C(NCc1ccc2c(c1)OCO2)c1cccc(N2CCCC2=O)c1,7.94
14,O=C(c1cccc(Br)c1)N1CCN(S(=O)(=O)N2CCOCC2)CC1,2.74
15,COc1ccccc1NC(=O)C(=O)N/N=C(\C)CC(=O)Nc1ccc(OCc2ccccc2)cc1,9.87
16,CCN(CCNC(=O)Cn1c(=O)sc2ccccc21)c1ccccc1,-10.1
17,Cc1nn(Cc2c(F)c(F)c(F)c(F)c2F)c(C)c1NC(=O)c1nn(C)cc1Br,8.25
18,O=C(O)CCC(=O)Nc1sc2c(c1C(=O)NCc1ccccc1)CCCC2,0.699
19,O=C(Nc1ccccc1)/C(=C/c1ccccc1)NC(=O)c1ccco1,15.7
20,O=C(COc1cccnc1[N+](=O)[O-])Nc1ccc(S(=O)(=O)N2CCOCC2)cc1,14.2
21,Cc1ccc(-c2nn3c(C)nnc3c3ccccc23)cc1S(=O)(=O)NC(C)c1ccccc1 (stereo not shown),-14.4
22,COc1ccccc1NS(=O)(=O)c1cccc(C(=O)NNC(=O)c2ccc(=O)[nH]c2)c1,8.79
23,CC(C)(C)c1ccc(C(=O)NCC(=O)N2CCCC2)cc1,17.7
24,CC(OC(=O)CCCc1c[nH]c2ccccc12)C(=O)Nc1ccc(S(N)(=O)=O)cc1 (stereo not shown),0.844
25,OCC1(CC2CCCCO2)CCN(Cc2ccccc2-c2ccco2)CC1 (stereo not shown),3.52
26,CCOC(=O)N1CCc2c(sc3nc(SC(C)C)n(N)c(=O)c23)C1,4.79
27,Cc1nc(SCCOc2ccccc2)[nH]c(=O)c1Cc1ccccc1,11.5
